The other results are listed elsewhere or left out.
B1: chr6:136999970:137001557:-|three_prime_utr|ENSG00000016402|control|control|control (ssRNA)
RNA: GGGAGUUCUACAGUCCGACGAUCAAGUUUUUUCCAGUUUGUCAGUGUCUGUGAGAAUUACUUAUUUCUUUUCUCUAUUCUCAUAGCACGUGUGUGAUUGGUUCAUGCAUGUAGGUCUCUUAACAAUGAUGGUGGGCCUCUGGACAACAGAGGAUUGAGCAUCA
B2: chr1:17067826:17067927:-|3pUTR|ENSG00000117115|msi1|total|mutant (ssRNA)
RNA: GGGAGUUCUACAGUCCGACGAUCCCAGAUUCAUUCCCUGGCUCCAACUGAAAAGACUCAGUUUCAAUCGUUAAAAGUUCCUUCCGGGCCAGAAGAAUAAAUGAAUUAUAAUCCCAUUUUGAAGAACCGAUUUAUAACCAAUGACAACAGAGGAUUGAGCAUCA
B3: chr6:37331633:37331734:+|3pUTR|ENSG00000065491|unk|total|mutant (ssRNA)
RNA: GGGAGUUCUACAGUCCGACGAUCCCGUUCCCCUUCUGCCCCAGUCUGAGCCAGUGAGGGGCCGCUUUUUAAAACCAUUAUUCCCGAUGGAGGAGGCACUGAUGCUUGUAACUCUGGAAAGAGGCCUACACCCAAGGGCCCGGACAACAGAGGAUUGAGCAUCA
B4: ENSG00000124766:be:win_1501|3pUTR|ENSG00000124766|bound_else_gene|NA|bound_elsewhere_windowed (ssRNA)
RNA: GGGAGUUCUACAGUCCGACGAUCGACAGACGAAGAGUUUAAAGAGAAAAGGGAAAAAAGAAAGAAAAAGUAAGCAGGGCUGGCUUCGCCCGCGUUCUCGUCGUCGGAUCAAGGAGCGCGGCGGCGUUUUGGACCCGCGCUCCCCAACAGAGGAUUGAGCAUCA
B5: chr20:59938049:59938150:-|3pUTR|ENSG00000132825|unk|FALSE|unique (ssRNA)
RNA: GGGAGUUCUACAGUCCGACGAUCAAGUUUGAAACUAAGCAUUUUAAGAAGUCUUGCCUCAGUUAUUUCAGUUUUCAGGUGACUAGAGAAUUUCAGGCAACAGUGCCCUUUGCAAUUACCUUUUUGAUGAUUAAGGUGACUAUUCAACAGAGGAUUGAGCAUCA
B6: chr3:64018827:64018930:-|CDS|ENSG00000163636|unk|FALSE|unique (ssRNA)
RNA: GGGAGUUCUACAGUCCGACGAUCUGAACUCAUGGAUUAUAAAACAUUUGUGACUUAUACUGUCUAUGUCAGUAUGAUUGCCUUAGAAAGACCAGAUCUCAGGGAAAAGGUAAUGACCAAACUUUAAUACUCAAAUUUAAAGACCAACAGAGGAUUGAGCAUCA

target: MSI1 full-length (mouse, UniProt Q61474 1-362); assay: nsRBNS (natural sequence RNA bind-n-seq); RBNS binding buffer (assumed for nsRBNS): 25 mM Tris pH 7.5, 150 mM KCl, 3 mM MgCl2, 0.01% Triton X-100, 500 ug/ml BSA, 20 U/ml SUPERase-In, 4 C; UNK is unkempt and MSI1 is Musashi-1; names of the RNAs are library labels; protein concentration not given here; high values mean tight binding
UniProt Q61474, sequence (Q61474 whole entry): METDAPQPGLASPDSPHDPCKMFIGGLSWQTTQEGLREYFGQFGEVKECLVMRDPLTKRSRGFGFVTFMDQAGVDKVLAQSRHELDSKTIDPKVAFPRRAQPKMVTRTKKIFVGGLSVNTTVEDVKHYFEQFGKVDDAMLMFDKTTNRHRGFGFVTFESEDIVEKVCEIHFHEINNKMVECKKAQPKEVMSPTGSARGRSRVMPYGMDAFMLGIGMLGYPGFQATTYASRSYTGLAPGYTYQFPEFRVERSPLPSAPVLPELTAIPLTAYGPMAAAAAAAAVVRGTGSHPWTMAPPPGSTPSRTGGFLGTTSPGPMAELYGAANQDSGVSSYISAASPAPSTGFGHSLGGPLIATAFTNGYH

| Binder | binding signal [enrichment R] |
| --- | --- |
| B1 | 0.793 |
| B2 | 0.488 |
| B3 | 0.474 |
| B4 | 0.527 |
| B5 | 0.865 |
| B6 | 0.403 |

— article PMC12136788
